# Laboratory results as given in PMC10075517, “Design, synthesis and biological evaluation of novel histone deacetylase (HDAC) inhibitors derived from β-elemene scaffold” (Journal of Enzyme Inhibition and Medicinal Chemistry, 2023).
# Read-outs that look alike come from different tables or passages of the source.
# Experiments:
# HDAC6 = target: T1, HDAC6 (Homo sapiens, UniProt Q9UBN7); assay: biochemical
# T1 sequence (Q9UBN7 1-1215): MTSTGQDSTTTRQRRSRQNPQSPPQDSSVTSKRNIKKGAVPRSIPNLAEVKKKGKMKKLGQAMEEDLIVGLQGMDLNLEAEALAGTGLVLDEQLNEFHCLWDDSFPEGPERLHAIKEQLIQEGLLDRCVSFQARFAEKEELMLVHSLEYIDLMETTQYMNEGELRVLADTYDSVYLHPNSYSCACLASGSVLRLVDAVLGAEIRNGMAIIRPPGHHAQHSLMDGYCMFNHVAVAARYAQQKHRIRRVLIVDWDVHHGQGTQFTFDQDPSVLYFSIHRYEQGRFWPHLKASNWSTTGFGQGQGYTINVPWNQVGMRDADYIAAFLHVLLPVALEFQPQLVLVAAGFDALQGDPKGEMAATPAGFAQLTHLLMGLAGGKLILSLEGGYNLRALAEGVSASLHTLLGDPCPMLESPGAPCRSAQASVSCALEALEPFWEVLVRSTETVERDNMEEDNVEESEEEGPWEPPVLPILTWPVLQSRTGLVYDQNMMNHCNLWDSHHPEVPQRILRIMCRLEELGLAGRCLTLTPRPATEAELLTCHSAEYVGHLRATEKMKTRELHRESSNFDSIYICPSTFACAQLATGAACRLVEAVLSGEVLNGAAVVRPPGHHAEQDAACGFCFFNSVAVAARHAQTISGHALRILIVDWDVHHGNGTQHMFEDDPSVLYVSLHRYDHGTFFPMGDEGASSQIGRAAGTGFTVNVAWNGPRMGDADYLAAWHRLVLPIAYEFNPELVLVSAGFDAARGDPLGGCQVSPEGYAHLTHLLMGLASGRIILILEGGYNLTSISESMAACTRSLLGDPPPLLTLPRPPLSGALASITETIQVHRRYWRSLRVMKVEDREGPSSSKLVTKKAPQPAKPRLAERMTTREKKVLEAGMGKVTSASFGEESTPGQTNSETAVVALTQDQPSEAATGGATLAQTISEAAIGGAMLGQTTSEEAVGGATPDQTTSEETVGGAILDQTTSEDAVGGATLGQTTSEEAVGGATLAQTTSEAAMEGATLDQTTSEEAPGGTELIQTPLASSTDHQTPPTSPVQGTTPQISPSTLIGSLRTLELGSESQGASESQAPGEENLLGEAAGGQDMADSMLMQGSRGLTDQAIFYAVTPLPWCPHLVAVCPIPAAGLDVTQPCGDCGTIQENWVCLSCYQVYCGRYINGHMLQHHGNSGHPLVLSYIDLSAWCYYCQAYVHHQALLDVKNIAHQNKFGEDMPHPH
# K562 cells = assay: In vitro anti-proliferative assay (CCK8), K562; conditions: Homo sapiens, K562, 72 h, read-out: IC50 K562
# HDAC1 = HDAC1 (Homo sapiens, UniProt Q13547); assay: biochemical
# Chain of HDAC1 (Q13547 whole entry): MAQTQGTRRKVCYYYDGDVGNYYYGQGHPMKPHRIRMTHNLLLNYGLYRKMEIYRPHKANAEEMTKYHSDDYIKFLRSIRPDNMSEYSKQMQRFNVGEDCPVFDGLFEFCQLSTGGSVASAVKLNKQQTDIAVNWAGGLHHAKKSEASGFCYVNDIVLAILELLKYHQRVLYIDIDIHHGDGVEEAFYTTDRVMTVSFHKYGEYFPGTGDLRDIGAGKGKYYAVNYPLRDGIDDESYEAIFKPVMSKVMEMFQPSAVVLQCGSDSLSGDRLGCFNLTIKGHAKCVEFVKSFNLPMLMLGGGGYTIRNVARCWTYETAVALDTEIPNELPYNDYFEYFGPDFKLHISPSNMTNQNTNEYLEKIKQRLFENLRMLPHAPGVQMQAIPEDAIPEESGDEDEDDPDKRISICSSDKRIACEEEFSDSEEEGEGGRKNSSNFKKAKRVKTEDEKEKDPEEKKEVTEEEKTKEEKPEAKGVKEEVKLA
# HEL cells = assay: In vitro anti-proliferative assay (CCK8), HEL; conditions: Homo sapiens, 72 h, read-out: IC50 HEL
# WSU-DLCL-2 cells [1] = assay: In vitro anti-proliferative assay (CCK8), WSU-DLCL-2; conditions: Homo sapiens, WSUDLCL2, 72 h, read-out: IC50 WSU-DLCL-2
# MV4-11 cells = assay: In vitro anti-proliferative assay (CCK8), MV4-11
# WSU-DLCL-2 cells [2] = assay: Cell cycle assay (propidium iodide flow cytometry); format: cell-based; conditions: 72 h
# Method: In addition to studying the effects of compounds 27f and 39f on cell apoptosis, we also explored their effects on cell cycle progression by flow cytometry. […] WSU-DLCL-2 cells were treated with compounds 27f and 39f at 1 µM and 5 µM for 72 h, respectively.
# After treatment, cells were collected and fixed with 70% pre-cold ethanol in PBS and stored at −20 °C overnight. Then washed the cells with PBS twice, and incubated with 100 µg/ml RNase A at 37 °C for 1 h, stained with propidium iodide for 30 min avoid light at room temperature.
# SU-DHL-2 cells = assay: In vitro anti-proliferative assay (CCK8), SU-DHL-2
compound,measurement,setting,value
"C=C[C@]1(C)CC[C@@H](C(=C)Cn2cccn2)C[C@H]1C(=C)CN1CCN(C(=O)CCCCCCC(=O)NO)CC1 [Compound 39f, 8–(4-(2-((1R,2S,5R)-5–(3-(1H-pyrazol-1-yl)prop-1-en-2-yl)-2-methyl-2-vinylcyclohexyl)allyl)piperazin-1-yl)-N-hydroxy-8-oxooctanamide]",IC50,HDAC6,14 ± 1 nM
same,IC50,K562 cells,3670 ± 500 nM
same,IC50,HDAC1,9 ± 4 nM
same,IC50,HEL cells,2010 ± 270 nM
same,IC50,WSU-DLCL-2 cells [1],1590 ± 420 nM
same,IC50,"MV4-11 cells; Homo sapiens, MV4-11, 72 h, read-out: IC50 MV4-11, leukaemia cell line, 72 h, CCK8",< 1650 nM
same,IC50,"MV4-11 cells; read-out: IC50 MV4-11, leukaemia cell line, 72 h, CCK8",1000 ± 50 nM
same,cell proportion of G1 phase,WSU-DLCL-2 cells [2]; 1 μM,54.55%
same,cell proportion of G2 phase,WSU-DLCL-2 cells [2]; 1 μM,7.07%
same,cell proportion of S phase,WSU-DLCL-2 cells [2]; 1 μM,37.21%
same,cell proportion of G1 phase,WSU-DLCL-2 cells [2]; 5 μM,70.18%
same,cell proportion of G2 phase,WSU-DLCL-2 cells [2]; 5 μM,1.31%
same,cell proportion of S phase,WSU-DLCL-2 cells [2]; 5 μM,27.83%
same,IC50,"SU-DHL-2 cells; Homo sapiens, SU-DHL-2, 72 h, read-out: IC50 SU-DHL-2, lymphoma cell line, 72 h, CCK8",< 1550 nM
same,IC50,"SU-DHL-2 cells; read-out: IC50 SU-DHL-2, lymphoma cell line, 72 h, CCK8",1410 ± 40 nM
